From the supplement of paper PMC12217912
Some of the results follow. Sequences were assembled here from the parent chain. Values near 0.05 are background.

B1: TEV protease; numbered along this chain (parent)
chain: MGESLFKGPRDYNPISSSICHLTNESDGHTTSLYGIGFGPFIITNKHLFRRNNGTLVVQSLHGVFKVKDTTTLQQHLVDGRDMIIIRMPKDFPPFPQKLKFREPQREERICLVTTNFQTKSMSSMVSDTSCTFPSGDGIFWKHWIQTKDGQCGSPLVSTRDGFIVGIHSASNFTNTNNYFTSVPKNFMELLTNQEAQQWVSGWRLNADSVLWGGHKVFMVKPEEPFQPVKEATQL

Variants of: B1
Assay: raw area under fraction-flipped curve 0-4 h after induction (AUC4h, not background-subtracted), DNA-recorder readout of cleavage of the substrate (dimensionless); higher = more cleavage of the substrate by the protease variant
Conditions: temperature: 34 °C; time window: 0-4 h after rhamnose induction
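Further: Bxb1 expression induced with 0.2% (w/v) L-rhamnose at OD600 near 0.5, cultures sampled hourly, flipped fraction per protease–substrate barcode pair counted by paired-end Illumina sequencing.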

Variant	area with substrate ENLYFQC	area with substrate ENLYFQF	area with substrate ENLYFQG	area with substrate ENLYFQH	area with substrate ENLYFQI	area with substrate ENLYFQK	area with substrate ENLYFQL	area with substrate ENLYFQM	area with substrate ENLYFQN	area with substrate ENLYFQP	area with substrate ENLYFQS	area with substrate ENLYFQV	area with substrate ENLYFQW	area with substrate ENLYFQY	area with substrate ENLYFQR	area with substrate ENLYFQD	area with substrate ENLYFQE	area with substrate ENLYFQT	area with substrate ENLYFQQ
A207W	0.0888	0.0645	0.0849	0.0686	0.0825	0.0618	0.0546	0.0953	0.0591	0.0647	0.0975	0.0626	0.0873	0.0775					
T129G	0.118			0.0584	0.0531		0.0648	0.0794		0.0793	0.106		0.0739		0.0689				
G214R	0.0791	0.0626	0.0952	0.0612	0.0751	0.0601	0.0538	0.0661			0.0778		0.0529	0.058	0.0735	0.0724	0.0648	0.0604	
T174W	0.105		0.133	0.0878	0.0612					0.0553	0.106	0.054		0.0673		0.0777	0.0453		
G162W	0.105		0.0806	0.0848	0.04		0.0384			0.0613	0.0871	0.0468	0.0521	0.0821	0.0587		0.0653		0.053
Q227C	0.107		0.0537	0.0761			0.049	0.0648	0.0768	0.0693	0.103	0.0617			0.0659	0.0772		0.0669	0.0727
T71Q	0.101	0.0824	0.0833				0.0631	0.107	0.0696	0.0555	0.101	0.0665				0.0785		0.0624	0.0684
S123C	0.162		0.0876	0.114	0.0427	0.0661	0.0604	0.0857	0.0478	0.0741	0.0999	0.0603	0.0686	0.0439	0.0606	0.0839		0.0661	
V217K	0.0483					0.0792		0.06			0.061		0.0397	0.0666	0.0577			0.0705	
G37H	0.0884	0.0567		0.118	0.0569		0.0532		0.0663		0.0816	0.0551	0.0641		0.0334	0.0954		0.05	
F173Y	0.131			0.0951	0.0616		0.0614		0.0724	0.0668	0.102	0.0378	0.0645		0.0548			0.0637	0.0647
E107R	0.177		0.107		0.0409		0.0604	0.0221	0.0711		0.111		0.069	0.0822			0.0735	0.0667	
G138S	0.124			0.0767	0.0543						0.106			0.0754	0.0552	0.0916			
H143F	0.105		0.115		0.0737	0.0666	0.0567	0.0871			0.107	0.0595		0.0796	0.0634	0.0778		0.0519	
Q197M	0.154			0.0557	0.0558			0.093			0.109	0.0636					0.0748	0.0664	
